Source: the supplement of paper PMC3334620
Over roughly 33,000 sequences, “E-score (-0.5 to 0.5)” has its median near -0.012; the highest 2% begin near 0.29. Some of the results follow.

target: T1, Ybr033w (UniProt P38073); test: PBM E-score (8-mer binding enrichment) (E-score (-0.5 to 0.5)); higher = stronger / more preferred TF binding; most listed sequences are background and not binding sites; conditions: protein concentration: 200 nM; construct: GST-full length
T1 sequence: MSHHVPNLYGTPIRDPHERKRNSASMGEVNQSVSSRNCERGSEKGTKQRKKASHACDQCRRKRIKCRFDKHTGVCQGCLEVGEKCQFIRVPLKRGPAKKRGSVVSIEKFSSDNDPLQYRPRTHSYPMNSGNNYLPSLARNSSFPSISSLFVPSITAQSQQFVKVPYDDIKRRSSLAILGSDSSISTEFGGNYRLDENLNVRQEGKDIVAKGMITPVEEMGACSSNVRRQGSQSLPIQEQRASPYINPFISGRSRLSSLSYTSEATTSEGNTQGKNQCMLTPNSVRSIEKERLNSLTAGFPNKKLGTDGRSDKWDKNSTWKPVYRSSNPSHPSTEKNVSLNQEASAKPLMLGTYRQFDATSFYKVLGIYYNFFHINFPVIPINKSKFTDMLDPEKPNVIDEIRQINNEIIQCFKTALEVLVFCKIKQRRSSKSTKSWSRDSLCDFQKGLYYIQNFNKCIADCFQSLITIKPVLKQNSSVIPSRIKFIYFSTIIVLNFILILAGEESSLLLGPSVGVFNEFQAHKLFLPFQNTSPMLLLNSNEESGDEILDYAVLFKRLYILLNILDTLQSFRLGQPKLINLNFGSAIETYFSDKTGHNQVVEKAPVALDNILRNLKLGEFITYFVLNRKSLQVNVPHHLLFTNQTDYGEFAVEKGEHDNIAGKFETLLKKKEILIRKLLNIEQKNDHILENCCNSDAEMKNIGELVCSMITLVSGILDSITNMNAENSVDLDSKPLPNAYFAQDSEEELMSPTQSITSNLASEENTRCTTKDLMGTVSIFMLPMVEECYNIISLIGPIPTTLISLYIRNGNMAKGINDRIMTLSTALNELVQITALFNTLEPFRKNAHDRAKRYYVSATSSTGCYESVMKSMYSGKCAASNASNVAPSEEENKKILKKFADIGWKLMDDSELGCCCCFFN
How it was run: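 Universal all-10-mer Agilent arrays, double-stranded by primer extension on fresh or once-stripped slides, were probed with about 100-200 nM GST-tagged yeast transcription factors made by PURExpress. Fluorescent anti-GST detected bound protein, and masliner normalised the scans. E-scores from the Universal PBM Analysis Suite were given to each ungapped eight-base word pooled with its reverse complement.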

| Sequence | PBM E-score |
| --- | --- |
| AGAAAGCG | -0.0188 |
| ACATCTAT | 0.253 |
| CTCCAGAA | -0.0883 |
| CTCGGGGA | -0.153 |
| AAGACATA | 0.168 |
| AACAAGTC | 0.0761 |
| AGCACCCC | -0.353 |
| GGACATAA | 0.0846 |
| AGTGATGA | 0.0446 |
| GTGAGTTA | 0.031 |
| CGCGGGAA | 0.0225 |
| CCGCCGAA | 0.0143 |
| ACCCAGGC | -0.0962 |
| GGAGATCA | -0.082 |
| CAACTGAA | -0.057 |
| ATGGGGCA | -0.292 |
| AGTATTAA | 0.295 |
| CTCGCAAG | -0.0951 |
| CTCGCCCC | -0.265 |
| ATAATAAG | 0.18 |
| TAGTAAGA | 0.0907 |
| AGGCTAAC | -0.0289 |

| Sequence | PBM E-score |
| --- | --- |
| CCTCACTC | -0.0615 |
| CGGCGGTC | -0.25 |
| CAACACCC | -0.24 |
| GTGTTGTA | 0.0656 |
| CCACCTTA | -0.0643 |
| CAGTGTCC | -0.191 |
| GTCAGGAA | 0.132 |
| GTAAAATA | 0.269 |
| AACCGGCT | -0.0092 |
| ACGCTGAT | -0.0697 |
| ATAGCTTG | -0.0519 |
| AATGAGCG | 0.128 |
| CGATATCC | -0.00469 |
| ACGGCGTC | -0.256 |
| CGTATAAC | 0.0815 |
| GCGTCCAC | -0.187 |
| AATTGGTG | 0.0971 |
| ATACTGCC | 0.116 |
| CATTTCCA | 0.144 |
| GCTTAAAA | 0.0832 |
| GGTATGGA | -0.143 |
| AACAACCA | 0.272 |

| Sequence | PBM E-score |
| --- | --- |
| CTCCATCC | -0.2 |
| CATCACGG | -0.0912 |
| ACGCGTAG | -0.0909 |
| GGATCTAC | -0.00883 |
| ATACAAGA | 0.043 |
| CGATGTAA | 0.147 |
| AACTGACC | -0.187 |
| AAGGTGCT | -0.145 |
| CCCAATGA | -0.126 |
| TCGAAAGA | 0.128 |
| GACTAGGC | -0.179 |
| CTAAGCAC | 0.115 |
| CGGGCCAC | -0.29 |
| CCATCCTA | 0.00436 |
| ACTAGTGA | -0.0863 |
| ATTAACCC | 0.237 |
| TAGAATCA | -0.116 |
| CTCCCTTA | -0.181 |
| CCCATGTC | -0.0375 |
| GCCCAAGC | -0.104 |
| CACGGGAC | -0.0333 |
| AATGCGAC | 0.1 |

| Sequence | PBM E-score |
| --- | --- |
| GCTTGGAC | -0.137 |
| AGTAGCGC | 0.022 |
| GGTCGCCA | -0.227 |
| CTAAATTA | 0.173 |
| GCAGCCGC | -0.121 |
| AAAACTTG | 0.19 |
| CACTGTCC | -0.106 |
| GTACTTTA | 0.0353 |
| CCCAGCCG | -0.179 |
| CTCTCCGC | -0.0619 |
| CATTTGAA | 0.0768 |
| AACTGATA | 0.0823 |
| CTGCAACC | -0.244 |
| CGTGCTGC | -0.144 |
| AATAGATG | 0.193 |
| GTTAGTTA | 0.262 |
| ACACTCGA | -0.0986 |
| GCCGAGCC | -0.0852 |
| AGAGGCGG | -0.093 |
| CTACCCGA | 0.0953 |
